# In publication PMC4336329 (PLoS ONE, 2015):
# Hit rate of the full screen: of about 310,000 compounds, about 14,000 (4.5%) showed an effect of 50% or more. The effect is printed as a negative number. The list shows a part of the results.
# Biological target: human ether-à-go-go-related gene (hERG) potassium channel (human, UniProt Q12809)
# Test: primary screen, population patch clamp on CHO cells stably expressing hERG
# 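Further: peak tail current of the secondary pulse compared with the same well before compound.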
# human ether-à-go-go-related gene (hERG) potassium channel, sequence (Q12809 whole entry, looked up): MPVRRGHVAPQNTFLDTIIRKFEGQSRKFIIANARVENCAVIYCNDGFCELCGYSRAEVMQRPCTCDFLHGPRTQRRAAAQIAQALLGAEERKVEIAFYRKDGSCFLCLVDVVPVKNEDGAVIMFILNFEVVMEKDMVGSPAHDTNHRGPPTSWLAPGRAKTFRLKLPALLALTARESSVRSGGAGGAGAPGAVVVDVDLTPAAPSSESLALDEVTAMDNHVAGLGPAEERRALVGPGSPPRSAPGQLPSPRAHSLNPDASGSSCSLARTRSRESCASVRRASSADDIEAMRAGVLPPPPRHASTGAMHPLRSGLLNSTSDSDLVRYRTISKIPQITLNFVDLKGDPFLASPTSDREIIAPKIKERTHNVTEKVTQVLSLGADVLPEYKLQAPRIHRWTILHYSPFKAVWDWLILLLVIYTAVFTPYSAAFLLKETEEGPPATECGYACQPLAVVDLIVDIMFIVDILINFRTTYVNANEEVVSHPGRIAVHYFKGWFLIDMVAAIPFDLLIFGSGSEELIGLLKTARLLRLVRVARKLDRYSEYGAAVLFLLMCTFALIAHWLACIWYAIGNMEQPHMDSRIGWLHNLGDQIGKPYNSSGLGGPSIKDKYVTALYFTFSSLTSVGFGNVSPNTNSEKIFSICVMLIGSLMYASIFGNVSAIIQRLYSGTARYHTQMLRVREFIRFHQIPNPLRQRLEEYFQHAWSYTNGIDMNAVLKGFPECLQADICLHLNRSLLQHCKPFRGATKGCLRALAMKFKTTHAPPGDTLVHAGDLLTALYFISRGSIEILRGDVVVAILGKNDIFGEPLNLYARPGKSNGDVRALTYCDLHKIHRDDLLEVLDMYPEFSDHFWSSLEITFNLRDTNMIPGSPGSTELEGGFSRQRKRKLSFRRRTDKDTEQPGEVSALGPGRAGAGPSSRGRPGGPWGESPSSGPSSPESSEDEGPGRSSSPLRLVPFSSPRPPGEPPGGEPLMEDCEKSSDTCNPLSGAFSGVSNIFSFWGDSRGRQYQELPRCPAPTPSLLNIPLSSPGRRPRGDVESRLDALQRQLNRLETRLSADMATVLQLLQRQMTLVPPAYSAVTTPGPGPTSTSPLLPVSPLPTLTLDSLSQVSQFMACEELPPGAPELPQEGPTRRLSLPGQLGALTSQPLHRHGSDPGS
row,SMILES,"hERG current change (%, negative = inhibition) at 10uM [%]"
1,Cc1nnc(NC(=O)CCSCCC(=O)Nc2nnc(C)s2)s1,22.7
2,O=C(Cc1ccccc1F)OCN1C(=O)c2ccccc2C1=O,21.5
3,CCC(C)NC(=O)c1nc2c(nnn2Cc2ccccc2Cl)c(=O)[nH]1 (stereo not drawn),16.8
4,O=C(NCCOc1ccccc1)c1n[nH]c(=O)c2ccccc12,12.1
5,Cc1cccc(N(C)S(=O)(=O)c2ccc3c(c2)C(C)(C)C(=O)N3C)c1,-8.42
6,CCCCC(=O)Oc1c(S(=O)(=O)c2ccc(C)cc2)c(C)nn1C(C)(C)C,-12.5
7,CCOC(=O)c1[nH]c(C)c(C(=O)OCC(=O)N2CCCCC2C)c1C (stereo not drawn),11.1
8,CC1CCC2=NN(C(=O)c3ccco3)C(O)(C(F)(F)F)C2C1 (stereo not drawn),4.08
9,C=CCOc1ccc(C(c2c(O)nc(SC)[nH]c2=O)c2c(O)nc(SC)[nH]c2=O)cc1,11.2
10,CC(c1ccco1)N(C(=O)Nc1ccccc1)C1CCCCC1 (stereo not drawn),11.1
11,O=C(CC(c1ccccc1)c1cc(Br)ccc1O)NCCCN1CCOCC1 (stereo not drawn),-31.3
12,Brc1ccc(-c2nnc3n2-c2ccccc2CC3)cc1,-41.3
13,Cc1cccc(NC(=O)CN2C(=O)CSC2=O)c1,14.5
14,CCCN(CC(=O)Nc1ccc(F)c(F)c1F)C(=O)Cc1ccc(S(=O)(=O)N2CCOCC2)s1,-13.6
15,CC(C)(C)c1ccccc1NC(=O)CN1C(=O)NC(Cc2ccccc2)C1=O (stereo not drawn),4.43
16,CCc1noc(C)c1C(=O)OCC(=O)Nc1cccc(C)c1,-6.43
17,CC1(C)CC2(C)OC(=N)C1(C#N)C2(C#N)C#N (stereo not drawn),10.2
18,CCOc1ccc(NC(=O)CCNS(=O)(=O)c2ccc(Br)s2)cc1,-13.9
19,Cc1nc2ccccn2c1C(=O)N/N=C/c1ccc(CNC(=O)C(=O)Nc2ccccc2)o1,-50.3
20,Cc1ccc(-c2cc(C(=O)NCc3cnn(C)c3C)c3cc(Br)ccc3n2)cc1,8.76
21,Cc1cnc(NC(=O)C2CC(=O)N(c3cccc(Cl)c3)C2)s1 (stereo not drawn),7.56
22,Cc1cccc(N2CCN(C(=O)C3CCC(=O)N(C4CC4)C3)CC2)c1C (stereo not drawn),0.967

row,SMILES,"hERG current change (%, negative = inhibition) at 10uM [%]"
1,COc1ccc(-n2c(Cc3cccn3C)nnc2SCC(=O)NC2CCCC2)cc1,-23.2
2,CC(NC(=O)CSc1nc(C2CC2)n(-c2ccccc2)n1)c1ccco1 (stereo not drawn),-29.9
3,CN(C)C(=O)c1ccc(Nc2nc(-c3cccs3)nc3ccccc23)cc1,-11.9
4,CN(C)CCN(C(=O)c1ccc(S(=O)(=O)N(C)C)cc1)c1nc2cc3c(cc2s1)OCCO3.Cl,-40.7
5,O=C(NCC(c1cccs1)N1CCOCC1)C1CCN(S(=O)(=O)c2ccccc2C(F)(F)F)CC1 (stereo not drawn),-33.4
6,CCN1CCCC1CNC(=O)Cn1cnc2ccc(S(=O)(=O)N3CCC(C)CC3)cc2c1=O (stereo not drawn),-47.7
7,Nc1c2c(nc3cccc(Cl)c13)N(c1ccccc1)CC2,31.7
8,CCCCn1c(O)c(C(CC)=NCCCN(C)C)c(=O)[nH]c1=O,-29.2
9,CCOc1ccc(/C=C/c2c([N+](=O)[O-])c(=O)n(C)c(=O)n2C)cc1,15
10,Cc1ccc(C(=O)N2CCc3ccccc32)cc1[N+](=O)[O-],-6.55
11,CCn1c(SCC(N)=O)nnc1-c1ccc2[nH]c(C)c(C)c2c1,0.594
12,O=C(CSc1nnc(-c2ccco2)c(-c2ccco2)n1)Nc1ccccc1,-75.2
13,CCO[C@H]1OC(C(=O)NC2CC2)=C[C@@H](c2c[nH]c3ccccc23)[C@@H]1CCCO,2.14
14,CC(C)(C)C(=O)N1CCN(c2nc3ccc(Br)cc3s2)CC1,-8.45
15,O=C(CSc1nnc(-c2ccco2)n1Cc1ccco1)N1CCOCC1,-12
16,O=C(Nc1nnc(-c2cccs2)s1)C1CC1,22.7
17,CCOC(=O)COc1ccc(S(=O)(=O)NCC2CCCO2)cc1 (stereo not drawn),3.8
18,Cc1ccc2c(c1)N(CC(=O)O)C(=O)CO2,-3.05
19,CCN(CC)CCCN1C(=O)C(=O)/C(=C(/O)c2ccc(C)cc2)C1c1ccccn1 (stereo not drawn),2.21
20,O=C(Nc1ccccc1C(=O)OC1CCOC1=O)c1ccco1 (stereo not drawn),-24.1
21,CCCC1(CCC)C(=O)NC(=Nc2ccccc2)NC1=O,13.5
22,Nc1nnnn1/N=C/c1cccc(Oc2ccccc2)c1,6.28

row,SMILES,"hERG current change (%, negative = inhibition) at 10uM [%]"
1,COc1cc(C(=O)Nc2nc3ccccc3[nH]2)ccc1OC(F)F,18
2,COc1ccccc1OCC(=O)Nc1ccc(S(=O)(=O)Nc2cc(C)nc(C)n2)cc1,10
3,COc1ccc(CCn2c(O)c(C=NCCCO)c(=O)[nH]c2=O)cc1OC,18.3
4,COc1cccc(C(=O)COc2ccc3ccc(=O)oc3c2)c1,21.4
5,Cc1cc2nc(CCN(Cc3cccnc3)C(=S)Nc3ccccc3)[nH]c2cc1C,-11.5
6,CCN(CC)CCn1c(N)c(S(=O)(=O)c2ccccc2)c2nc3ccccc3nc21,-49.4
7,CN1C(=O)C2(c3ccccc31)N(C)CC(c1ccccn1)C21SC(=S)N(Cc2ccco2)C1=O (stereo not drawn),-11.6
8,Cc1cc(C(=O)CSc2nnnn2C)c(C)n1-c1ccc2c(c1)OCCO2,-11.3
9,COc1cccc(C(=O)Oc2cc(C)[nH]c(=O)c2[N+](=O)[O-])c1,18
10,O=C(Nc1ccc(Cl)c(Cl)c1)N1CCSCC1,0.506
11,C=CCn1c(=O)c2c(nc(-c3ccc(S(=O)(=O)O)cc3)n2C)n(C)c1=O,6.59
12,CC(=O)Oc1ccc2c(=O)c(Oc3ccccc3)c(C)oc2c1OC(C)=O,11.5
13,O=C(NCc1ccc2c(c1)OCO2)c1ccc(N2CCCCCC2)c([N+](=O)[O-])c1,4.72
14,CC(=O)N/C(=C\c1ccc(Cl)cc1)C(=O)O,3.81
15,Cc1ccc(SCC(=O)NC(=O)NCc2ccccc2)c(C)c1,6
16,CN1CCN(C(=O)c2ccc3c(=O)n(-c4ccc(F)cc4)c(=S)[nH]c3c2)CC1,19.8
17,CCCCCn1c(=O)c(C(=O)Nc2nc3ccccc3[nH]2)c(O)c2ccccc21,-13.6
18,COc1ccc(S(=O)(=O)N2CCOCC2)cc1NC(=O)c1ccncc1,13.8
19,COc1ccccc1CNC(=O)COC(=O)/C=C/c1ccc(OC(F)F)c(OC)c1,7.34
20,CCSc1sc(CC)cc1C=O,5.34
21,CN(Cc1ccc(Cl)c(Cl)c1)C(=O)c1cccc(S(=O)(=O)N2CCN(Cc3ccccc3)CC2)c1,-17.6
22,O=C(O)CSc1ncnc2c1sc1nc(-c3ccccc3)c3c(c12)CCC3,10.3

row,SMILES,"hERG current change (%, negative = inhibition) at 10uM [%]"
1,O=C(c1ccco1)N1CCN(S(=O)(=O)c2ccc(Br)cc2)CC1,-8.4
2,CCOc1ccccc1NC(=S)N1CCN(c2ccccc2)CC1,7.53
3,COc1ccc(-c2csc(=Nc3ccccc3)n2CCO)cc1,6.86
4,COc1ccc(CNC(=O)C(NC(C)=O)C(=O)Nc2ccc(OC)cc2)cc1 (stereo not drawn),9.29
5,COc1cc(C(=O)NCC(=O)NCCSc2ccc(Br)cc2)cc(OC)c1OC,-20.2
6,Cc1[nH]nc(Nc2ccc(O)cc2)c1[N+](=O)[O-],23.6
7,COc1ccc(OCCSCc2nnc(NC(=O)Nc3ccc(Cl)cc3)s2)cc1,4.36
8,Cc1sc(C(C2C(=O)CC(C)(C)CC2=O)C2C(=O)CC(C)(C)CC2=O)cc1[N+](=O)[O-],13.1
9,COC(=O)c1cc(NS(=O)(=O)c2ccc(N3CCC(C)CC3)c([N+](=O)[O-])c2)cc(C(=O)OC)c1,-5.73
10,CC(=O)NC(Cc1ccccc1)C(=O)N1CCN(C(=O)c2ccco2)CC1 (stereo not drawn),14.7
11,Oc1[nH]c2ccccc2c1/C=N/N1CCCCC1,12.4
12,Cc1cc(C)n2nc(S(=O)(=O)N(C)Cc3ccccc3)nc2n1,-11.7
13,Cc1cc(C)cc(-n2ncc3c2CCCC3NC(=O)CCCn2cncn2)c1 (stereo not drawn),6.57
14,CCN(CC)CCCN(C)C(=O)Cn1nc(Cc2ccncc2)c2ccccc2c1=O,16.4
15,O=C(CSc1nnnn1CCCO)Nc1ccc2c(c1)OCO2,16.3
16,O=C(NC(=S)NCCc1ccccc1)c1cccc(Cl)c1,7.61
17,COc1ccc(N2CCN(S(=O)(=O)CCNC(=O)COc3ccccc3OC)CC2)cc1,-1.02
18,NC(=O)C1CCN(CC(=O)Nc2ccccc2Sc2ccccc2)CC1,-35.3
19,CC(=O)c1cc(C#N)c(Oc2cc(C)cc(C)c2)nc1C,-4.94
20,CC1CCc2sc(NC(=O)C3CC(Cl)=CCC3C(=O)O)c(C#N)c2C1 (stereo not drawn),26.7
21,Cc1ccc(-n2c(SCC(=O)N3CCOCC3)nnc2-c2cccnc2)cc1,3.74
